# Counter-ions that a name gives are not always drawn. The full ranking holds about 2,000 compounds; the median of “fractional viability relative to vehicle” is about 0.91, and the lowest 2% start at about 0.045. Some of the results follow.
# Tested on: TYKNU
# Experiment: fractional viability relative to vehicle; TYKNU is a high-grade serous ovarian cancer line; higher = less growth inhibition
# Settings: 72 h
# In short: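 TYKNU control cells or lentiCRISPRv2 knockout derivatives were plated at 500 cells per well in duplicate into drug-stamped 384-well plates holding a ~2100-compound library at 2 or 10 μM. Culture was in RPMI 1640 with 10% FBS at 37 °C in 5% CO2, with 72 h of drug treatment. Viability was measured by Cell Titer Glo luminescence, and the averaged duplicate treatment wells were normalised to duplicate control wells at the same plate position.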
# [1] = 2uM, genotype: DNM1L knockout (sgDNM1L #1)
# [2] = 2uM, genotype: sgCTRLA1 (non-targeting control)
# [3] = 10uM, genotype: DNM1L knockout (sgDNM1L #1)
# [4] = 10uM, genotype: sgCTRLA1 (non-targeting control)
Structure (SMILES),fractional viability [1],fractional viability [2],fractional viability [3],fractional viability [4]
Cc1ncc([N+](=O)[O-])n1CC(C)O (configuration not stated) [Secnidazole],1.12,1.03,1.36,1.22
OCCn1cc(-c2cnc3nnn(Cc4ccc5ncccc5c4)c3n2)cn1,1.03,1.13,0.949,1.18
C[C@]12CCC(=O)C=C1[C@@H]1C[C@@H]1[C@H]1[C@@H]3[C@@H]4C[C@@H]4[C@@]4(CCC(=O)O4)[C@@]3(C)CC[C@@H]12 [Drospirenone],1.14,0.966,0.869,0.875
N#Cc1cc(CN2CCC(Nc3ncnc4sc(Cl)cc34)CC2)ccc1F,0.816,1.01,0.596,0.553
COc1ccc2cc([C@H](C)C(=O)O)ccc2c1 [Naproxen],1.11,1.14,0.961,1.02
C=CC1=C(C(=O)O)N2C(=O)[C@@H](NC(=O)/C(=N\O)c3csc(N)n3)[C@H]2SC1 [Cefdinir],0.915,1.01,0.932,1.03
CN1C(CCl)Nc2cc(Cl)c(S(N)(=O)=O)cc2S1(=O)=O (configuration not stated) [Methyclothiazide],1.11,1.22,0.891,1.13
OCc1ccccc1O[C@@H]1O[C@H](CO)[C@@H](O)[C@H](O)[C@H]1O [Salicin],0.9,1.15,0.831,1.18
C=C1CC[C@@H]2[C@](C)(CO)[C@H](O)CC[C@@]2(C)[C@@H]1C/C=C1/C(=O)OC[C@H]1O [Andrographolide],0.729,0.927,0.152,0.143
Cc1cn([C@H]2C=C[C@@H](CO)O2)c(=O)[nH]c1=O [Stavudine (d4T)],0.736,0.926,0.664,0.778
CC(=O)NS(=O)(=O)c1ccc(N)cc1 [Sulfacetamide Sodium],1.18,1.07,0.88,0.923
CC/C(=C(\c1ccc(O)cc1)c1ccc(OCCNC)cc1)c1ccccc1 [Endoxifen HCl],0.74,0.829,0.291,0.172
Cc1ccc(S(=O)(=O)Cc2nc(-c3ccc(C(=O)NCc4cccnc4)cc3)oc2C)cc1,0.0788,0.0847,0.0667,0.0818
COc1cccc2c1C(=O)c1c(O)c3c(c(O)c1C2=O)C[C@@](O)(C(C)=O)C[C@@H]3O[C@H]1C[C@H](N)[C@H](O)[C@H](C)O1 [Daunorubicin HCl],0.392,0.254,0.0554,0.0241
CNC(=O)c1cc(Oc2ccc(NC(=O)Nc3ccc(Cl)c(C(F)(F)F)c3)cc2)ccn1 [Sorafenib],0.729,0.795,0.301,0.197
CNC(=O)c1cc(Oc2ccc(NC(=O)Nc3ccc(Cl)c(C(F)(F)F)c3)cc2)ccn1 [Sorafenib Tosylate],0.918,0.915,0.371,0.205
CNC(=O)c1ccccc1Nc1cc(Nc2ccc(N3CCOCC3)cc2OC)ncc1C(F)(F)F,0.645,0.724,0.323,0.328
CN(c1ccccc1CNc1nc(Nc2ccc3c(c2)CC(=O)N3)ncc1C(F)(F)F)S(C)(=O)=O,0.565,0.771,0.214,0.18
CCN(CC)CC(=O)Nc1c(C)cccc1C [Lidocaine],1.04,1.17,1.04,1.17
CC(=O)c1cc2c(o1)C(=O)c1ccccc1C2=O [Napabucasin],0.0305,0.0196,0.018,0.0135

Structure (SMILES),fractional viability [1],fractional viability [2],fractional viability [3],fractional viability [4]
CC(C=CC(=O)NO)=CC(C)C(=O)c1ccc(N(C)C)cc1 (configuration not stated) [Trichostatin A (TSA)],0.1,0.151,0.118,0.153
CC(=O)OCC(=O)[C@@]12OC(C)(C)O[C@@H]1C[C@H]1[C@@H]3C[C@H](F)C4=CC(=O)C=C[C@]4(C)[C@@]3(F)[C@@H](O)C[C@@]12C [Fluocinonide],1.22,1.08,0.801,0.941
c1ccc2c(CC3=NCCN3)cccc2c1 [Naphazoline HCl],0.971,1.18,0.671,1.07
COc1nc(OCc2cccc(-c3ccccc3)c2C)ccc1CNCCNC(C)=O [PD-1/PD-L1 inhibitor 2],0.852,0.872,0.501,0.0875
COc1cc2nccc(Oc3ccc(NC(=O)NC4CC4)c(Cl)c3)c2cc1C(N)=O [Lenvatinib (E7080)],0.933,1.04,0.815,1.06
c1nc2c(NC3CCCCC3)nc(Nc3ccc(N4CCOCC4)cc3)nc2[nH]1 [Reversine],0.545,0.579,0.229,0.216
CNc1cc(-c2cccc(Cl)c2Cl)nc(N)n1,0.294,0.379,0.252,0.165
C[C@@H](O[C@H]1OCCN(Cc2nn(P(=O)(O)O)c(=O)[nH]2)[C@H]1c1ccc(F)cc1)c1cc(C(F)(F)F)cc(C(F)(F)F)c1 [Fosaprepitant dimeglumine salt],0.96,1.02,0.454,0.875
CCC(C)(Oc1ccc(C2(c3ccc(OC(C)(CC)C(=O)O)cc3)CCCCC2)cc1)C(=O)O (configuration not stated) [Clinofibrate],1.04,1.07,0.917,1.13
Cc1c(CN2CCN(C(=O)[C@H](C)O)CC2)sc2c(N3CCOCC3)nc(-c3cnc(N)nc3)nc12,0.214,0.238,0.175,0.15
CC(C)(CO)c1cc2cc(NC(=O)C3(c4ccc5c(c4)OC(F)(F)O5)CC3)c(F)cc2n1C[C@@H](O)CO,0.741,0.998,0.693,0.859
CC[C@@H]1C(=O)OC[C@@H]1Cc1cncn1C [Pilocarpine HCl],0.825,1.13,0.74,1.1
CN1CCc2c(c3ccccc3n2Cc2ccc(C(=O)NO)cc2)C1 [Tubastatin A HCl],0.879,1.14,0.641,0.78
CN1CCc2c(c3ccccc3n2Cc2ccc(C(=O)NO)cc2)C1 [Tubastatin A],0.784,0.956,0.901,0.697
CS(=O)(=O)OCCCCOS(C)(=O)=O [Busulfan],1.02,0.987,0.811,0.911
N#Cc1ccc(-c2csc(NN=C3CCCC3)n2)cc1 [Remodelin],0.788,0.981,0.72,0.576
O=C(/C=C/c1ccc(O)cc1)c1ccc(O)cc1O [Isoliquiritigenin],0.961,1.12,0.899,0.882
OCc1c[nH]c2ccccc12 [Indole-3-carbinol],1.09,1.08,1.09,1.08
N#CCNC(=O)c1ccc(-c2ccnc(Nc3ccc(N4CCOCC4)cc3)n2)cc1,0.802,1,0.183,0.236
Cc1ncc(-c2ccnc(Nc3ccc(S(C)(=O)=O)cc3)n2)n1C(C)C,0.158,0.182,0.193,0.154

Structure (SMILES),fractional viability [1],fractional viability [2],fractional viability [3],fractional viability [4]
Cc1ccc(=O)n(-c2ccccc2)c1 [Pirfenidone],1.06,1.17,0.866,1.09
CN(C)C(=O)[C@H](O)[C@H](Cc1ccccc1)NC(=O)c1cc2cc(Cl)ccc2[nH]1,1.02,1.12,0.704,1.07
O=C(Oc1cc(S(=O)(=O)c2ccccc2)ccc1[N+](=O)[O-])c1ccc(Cl)cc1,0.81,0.965,0.882,0.765
COc1ccc(C2CC(=O)c3c(O)cc(OC4OC(COC5OC(C)C(O)C(O)C5O)C(O)C(O)C4O)cc3O2)cc1OC (configuration not stated) [Methyl-Hesperidin],0.968,1.08,0.924,1.04
Cc1cc(CN2CCN(c3c(Br)cnc4nc(-c5ccc(N6CCN(C)CC6)cc5)[nH]c34)CC2)no1,0.257,0.787,0.0626,0.0746
CCN1CCN(Cc2ccc(C(=O)Nc3ccc(C)c(Oc4ccc5c(c4)CC(=O)N5)c3)cc2C(F)(F)F)CC1,0.704,0.758,0.477,0.756
N[C@@H](Cc1cc(I)c(Oc2ccc(O)c(I)c2)c(I)c1)C(=O)O [Liothyronine Sodium],0.807,1.03,0.826,0.949
COCCCN1CCC(NC(=O)c2cc(Cl)c(N)c3c2OCC3)CC1 [Prucalopride],1,1.25,0.842,1.13
COCCCN1CCC(NC(=O)c2cc(Cl)c(N)c3c2OCC3)CC1 [Prucalopride Succinat],1.04,1.18,0.858,1.07
C=CC(=O)N1C/C(=C\c2ccc([N+](=O)[O-])cc2)C(=O)/C(=C/c2ccc([N+](=O)[O-])cc2)C1,0.0518,0.0506,0.032,0.0122
CNc1nc(Nc2cn(C(C)(C)C#N)nc2C)ncc1C(F)(F)F,0.751,0.923,0.758,0.766
COC(=O)C1=C(C#N)NC(C)=C(C(=O)OC(C)C)C1c1cccc([N+](=O)[O-])c1 (configuration not stated) [Nilvadipine],1.13,1.08,0.854,0.905
C[C@H](CCC(=O)O)[C@H]1CC[C@H]2[C@@H]3[C@@H](O)C[C@@H]4C[C@H](O)CC[C@]4(C)[C@H]3CC[C@]12C [Ursodiol],0.966,1.09,0.944,0.992
O=C(CCCN1CCN(c2ccccn2)CC1)c1ccc(F)cc1 [Azaperone],0.96,1.13,1.01,1.12
O=C(Nc1ccncc1)c1cc([N+](=O)[O-])ccc1Cl,1.03,1.13,0.743,0.889
C[C@]12CC[C@@H]3c4ccc(OC(=O)c5ccccc5)cc4CC[C@H]3[C@@H]1CC[C@@H]2O [Estradiol Benzoate],0.97,0.973,0.58,0.621
Cc1ccc(F)c(NC(=O)Nc2ccc(-c3cccc4[nH]nc(N)c34)cc2)c1 [Linifanib (ABT-869)],1.25,1.09,0.339,0.324
CN1CCN(C(c2ccccc2)c2ccccc2)CC1 [Cyclizine 2HCl],0.914,1.17,0.803,0.991

# From the supplement of paper PMC5919970
